Measured values taken from a compilation of properties of binary mixtures (doi:10.1016/j.molliq.2017.03.036).
The densities may have been worked out from excess volumes.

Assay: xn = mol fraction of the nth substance listed
Conditions: 101 kPa

CC(=O)[O-].CC[n+]1ccn(C)c1 + CN(CCO)CCO
mass density [kg/m3]
Conditions	x1 = 0.1002	x1 = 0.2002	x1 = 0.2997	x1 = 0.4001	x1 = 0.4995	x1 = 0.5998	x1 = 0.7003	x1 = 0.7998	x1 = 0.8999	x1 = 1
288.15 K	1051	–	1065	1072	–	1084	1090	1096	1101	1106
293.15 K	1048	1055	1062	–	1075	1081	1087	1093	1098	1103
298.15 K	1044	1052	1059	1065	–	1078	1084	1090	1095	1100
303.15 K	1041	–	1055	1062	1069	–	1081	1087	1092	–
308.15 K	1037	1045	1052	1059	1065	1072	1078	1084	–	1094
313.15 K	1034	1042	1049	1056	–	1069	–	–	1086	1091
318.15 K	–	1039	1046	1053	1059	1066	–	1078	–	–
323.15 K	–	1035	1042	1049	1056	1063	1069	1074	1080	–
328.15 K	–	1032	1039	1046	–	–	1066	1071	1077	1082
333.15 K	1020	1028	1036	1043	1050	1056	1063	1068	–	–
338.15 K	1016	1025	1033	1040	1047	1053	1060	1065	1071	1076
343.15 K	1013	1022	1030	–	1044	1050	1057	1062	1068	1073
348.15 K	1009	1018	1026	1034	–	1047	1054	1059	1065	1070
353.15 K	1006	–	1023	1031	1038	–	1051	–	1062	1067

CN(CCO)CCO + CC(=O)[O-].CC[n+]1ccn(C)c1
x2 = 0
Conditions	mass density [kg/m3]
288.15 K	1044
293.15 K	1040
298.15 K	1036
303.15 K	1032
308.15 K	1029
313.15 K	1025
318.15 K	1021
323.15 K	1017
333.15 K	1009
348.15 K	998
353.15 K	994
